Measured values published in article PMC10104637, “Phosphorylation of USP29 by CDK1 Governs TWIST1 Stability and Oncogenic Functions” (Advanced Science, 2023).
These are yes or no findings as the source states them, for the method shown. Binding seen in cells or lysates may run through a third protein. Some entries that bind do so weakly or less than the wild type. For some assays here: Tags and fused reporters may be left off the sequences shown. Values belong to the molecule of their own block, whether it stands above or below them.

Sequences of proteins named here, by UniProt entry; tags and fusion partners are left off.
UniProt Q15672: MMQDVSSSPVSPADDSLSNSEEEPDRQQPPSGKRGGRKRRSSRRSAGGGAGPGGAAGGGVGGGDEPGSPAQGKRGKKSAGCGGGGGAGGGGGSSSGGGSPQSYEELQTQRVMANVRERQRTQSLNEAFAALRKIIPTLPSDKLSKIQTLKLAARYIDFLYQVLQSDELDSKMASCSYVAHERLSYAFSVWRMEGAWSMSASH
UniProt P06493: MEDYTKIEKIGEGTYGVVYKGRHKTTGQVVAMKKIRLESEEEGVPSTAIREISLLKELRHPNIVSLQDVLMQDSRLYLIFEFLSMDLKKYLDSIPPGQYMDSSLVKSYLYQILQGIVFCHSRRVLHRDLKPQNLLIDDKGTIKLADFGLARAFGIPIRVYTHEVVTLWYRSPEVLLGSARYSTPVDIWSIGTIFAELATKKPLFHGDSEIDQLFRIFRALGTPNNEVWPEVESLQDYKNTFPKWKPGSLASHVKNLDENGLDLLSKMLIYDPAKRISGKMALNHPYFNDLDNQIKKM

Columns and labels:
[1] = target: T1, Flag-USP29 M3 (287-686aa) (UniProt Q9HBJ7); experiment: co-IP; Flag-USP29 full length or truncations co-expressed with HA-TWIST1 in 293T cells; lysates precipitated with S-protein agarose; blot
T1 sequence: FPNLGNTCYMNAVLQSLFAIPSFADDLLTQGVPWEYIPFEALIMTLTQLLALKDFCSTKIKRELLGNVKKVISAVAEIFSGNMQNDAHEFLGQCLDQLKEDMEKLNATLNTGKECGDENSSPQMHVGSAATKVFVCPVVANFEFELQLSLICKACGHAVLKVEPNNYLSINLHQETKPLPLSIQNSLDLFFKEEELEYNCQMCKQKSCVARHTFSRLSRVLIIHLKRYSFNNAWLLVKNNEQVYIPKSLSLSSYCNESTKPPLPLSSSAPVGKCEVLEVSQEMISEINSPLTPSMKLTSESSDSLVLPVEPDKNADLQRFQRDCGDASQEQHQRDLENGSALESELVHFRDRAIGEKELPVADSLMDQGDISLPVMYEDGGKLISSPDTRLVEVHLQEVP

[2] = target: T2, Flag-USP29 M4 (687-922aa) (UniProt Q9HBJ7); experiment: as above
T2 sequence: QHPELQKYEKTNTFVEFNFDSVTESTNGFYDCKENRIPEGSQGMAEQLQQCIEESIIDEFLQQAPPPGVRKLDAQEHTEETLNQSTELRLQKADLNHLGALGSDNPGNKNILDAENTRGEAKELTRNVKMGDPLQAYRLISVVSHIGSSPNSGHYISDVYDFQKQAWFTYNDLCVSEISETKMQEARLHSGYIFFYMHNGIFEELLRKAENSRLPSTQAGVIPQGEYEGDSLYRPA

[3] = target: T3, Flag-USP29 M2 (287-486aa) (UniProt Q9HBJ7); experiment: as above
T3 sequence: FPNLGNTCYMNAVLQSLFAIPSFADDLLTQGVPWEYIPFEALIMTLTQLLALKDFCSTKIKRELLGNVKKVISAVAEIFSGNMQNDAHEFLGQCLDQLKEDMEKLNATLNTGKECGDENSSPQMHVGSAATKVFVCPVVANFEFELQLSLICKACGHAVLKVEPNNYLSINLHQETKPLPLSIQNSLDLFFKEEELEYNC

Full length Flag-USP29 = target: T4, Full length Flag-USP29 (UniProt Q9HBJ7); experiment: as above
T4 sequence: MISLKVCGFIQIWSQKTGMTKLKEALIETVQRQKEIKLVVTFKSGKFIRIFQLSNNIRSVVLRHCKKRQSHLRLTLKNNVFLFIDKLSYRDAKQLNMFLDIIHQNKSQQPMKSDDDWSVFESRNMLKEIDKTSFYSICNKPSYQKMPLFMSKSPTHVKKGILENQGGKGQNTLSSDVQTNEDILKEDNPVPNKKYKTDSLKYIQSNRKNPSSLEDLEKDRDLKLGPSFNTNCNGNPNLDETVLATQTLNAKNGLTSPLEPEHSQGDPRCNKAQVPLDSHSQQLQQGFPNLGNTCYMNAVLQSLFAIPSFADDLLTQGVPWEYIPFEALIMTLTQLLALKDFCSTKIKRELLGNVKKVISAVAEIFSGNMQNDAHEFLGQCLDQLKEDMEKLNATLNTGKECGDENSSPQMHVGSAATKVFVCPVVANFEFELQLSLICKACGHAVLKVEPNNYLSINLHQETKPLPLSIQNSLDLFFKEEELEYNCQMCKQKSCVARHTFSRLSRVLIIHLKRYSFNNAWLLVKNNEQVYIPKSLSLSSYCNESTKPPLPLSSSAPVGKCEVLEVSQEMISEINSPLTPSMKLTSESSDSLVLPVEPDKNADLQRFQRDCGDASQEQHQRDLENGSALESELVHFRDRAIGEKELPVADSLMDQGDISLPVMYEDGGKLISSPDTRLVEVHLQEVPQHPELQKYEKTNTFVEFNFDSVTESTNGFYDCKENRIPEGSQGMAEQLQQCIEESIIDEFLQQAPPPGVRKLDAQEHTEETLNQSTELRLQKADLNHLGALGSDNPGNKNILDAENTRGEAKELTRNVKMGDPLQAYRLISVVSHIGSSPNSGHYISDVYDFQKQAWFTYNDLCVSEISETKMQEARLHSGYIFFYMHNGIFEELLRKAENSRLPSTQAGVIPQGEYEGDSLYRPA

Flag-USP29 M1 (1-286aa) = target: T5, Flag-USP29 M1 (1-286aa) (UniProt Q9HBJ7); experiment: as above
T5 sequence: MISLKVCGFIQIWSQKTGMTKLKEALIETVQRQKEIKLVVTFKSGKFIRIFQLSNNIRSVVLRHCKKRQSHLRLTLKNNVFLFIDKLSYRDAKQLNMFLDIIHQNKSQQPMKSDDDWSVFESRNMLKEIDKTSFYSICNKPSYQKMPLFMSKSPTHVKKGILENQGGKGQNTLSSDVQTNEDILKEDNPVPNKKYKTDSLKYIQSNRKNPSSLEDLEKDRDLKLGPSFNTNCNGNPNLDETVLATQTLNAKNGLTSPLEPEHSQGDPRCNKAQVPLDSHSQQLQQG

[4] = target: T6, USP29 (endogenous) (human (endogenous in MDA-MB-231, BT549, HCC1806)) (UniProt Q9HBJ7); experiment: co-IP; endogenous proteins; lysates of MDA-MB-231, BT549 (for USP29-TWIST1 also HCC1806) cells in NETN buffer, primary antibody (IgG as control) with protein A/G beads overnight at 4 °C; USP29-TWIST1 also after treatment of MDA-MB-231 cells with RO-3306
T6 sequence: T4 sequence

[5] = target: TWIST1 (endogenous) (human (endogenous in MDA-MB-231, BT549, HCC1806)) (UniProt Q15672); experiment: as above
[6] = target: CDK1 (endogenous) (human (endogenous in MDA-MB-231, BT549)) (UniProt P06493); experiment: as above

binding [1]: no binding | binding [2]: binds | binding [3]: no binding | binding (Full length Flag-USP29): binds | binding (Flag-USP29 M1 (1-286aa)): no binding
Molecule: HA-TWIST1 (from UniProt Q15672 1-202)

binding [4]: binds
Molecule: TWIST1 (endogenous) (from UniProt Q15672 1-202)

binding [5]: binds | binding [6]: binds
B1: USP29 (endogenous) (enzyme, UniProt Q9HBJ7 1-922)
chain: T4 sequence
